“And” between values parts separate entries of the source, which are not always exact repeats. Identical values can stand only once. Screen size: about 110,000 compounds; about 230 (0.21%) showed an effect of 50% or more. The list shows a part of the results.
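Note: 30 min substrate incubation versus DMSO and 10 µM JCP410 controls.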

For the assay, the target named is DPAP1 (Plasmodium falciparum, UniProt Q8IIJ9). Briefly: primary screen, percent inhibition; read by cleavage of a fluorogenic dipeptide substrate; higher = more effect of the substance. The arrangement: species or system P. falciparum D10 trophozoite lysates; single well.
Chain of DPAP1 (Q8IIJ9 whole entry, looked up): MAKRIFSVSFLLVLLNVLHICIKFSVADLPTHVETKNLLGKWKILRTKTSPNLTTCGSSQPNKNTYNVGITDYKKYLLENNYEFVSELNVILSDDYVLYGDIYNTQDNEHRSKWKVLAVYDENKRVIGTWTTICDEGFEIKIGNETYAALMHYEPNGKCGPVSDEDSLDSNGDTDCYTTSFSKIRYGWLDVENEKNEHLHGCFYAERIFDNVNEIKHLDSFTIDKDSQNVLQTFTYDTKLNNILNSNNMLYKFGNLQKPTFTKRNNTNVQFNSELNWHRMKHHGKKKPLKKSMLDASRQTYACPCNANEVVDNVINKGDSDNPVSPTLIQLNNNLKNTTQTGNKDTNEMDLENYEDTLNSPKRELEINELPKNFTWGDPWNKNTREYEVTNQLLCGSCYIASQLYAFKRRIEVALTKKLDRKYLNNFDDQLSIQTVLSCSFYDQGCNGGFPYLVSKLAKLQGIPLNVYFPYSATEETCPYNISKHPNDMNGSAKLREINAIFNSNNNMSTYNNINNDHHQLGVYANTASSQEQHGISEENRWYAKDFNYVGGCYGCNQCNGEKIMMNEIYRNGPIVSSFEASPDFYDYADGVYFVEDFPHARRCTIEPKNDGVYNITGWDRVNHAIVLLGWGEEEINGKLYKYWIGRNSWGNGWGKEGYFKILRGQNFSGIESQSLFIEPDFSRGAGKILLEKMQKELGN
For `C(=C\c1ccccc1)/CN1CCN(C2CCN(Cc3ccccc3)CC2)CC1`, the “% Inhibition @ 10 uM” value is listed as 1.88%.

`CCOCCCNC(=O)Cn1ncc2c3ccccc3n(Cc3cccc(Cl)c3)c2c1=O`: the “% Inhibition @ 10 uM” value was determined as 0.137%.

On to `CC1(C(=O)NCc2ccc(C(C)(C)C)cc2)COC(c2ccccc2)OC1` (stereo not shown), for which the “% Inhibition @ 10 uM” value is -4.35%.

With `O=C(NCCCN1CCOCC1)c1cc2c(O)nc3ccccc3c2s1`, the “% Inhibition @ 10 uM” value is -0.499%.

For `O=C(Cn1cccc1)NCCc1ccc(Cl)cc1`, the “% Inhibition @ 10 uM” value was -0.905%.

With `Cc1ccc2nc3c(O)n(CCCN4CC(C)CC(C)C4)cnc-3c2c1` (stereo not shown), the “% Inhibition @ 10 uM” value is given as -0.0235%.

For `CC1(C)O[C@H]2OC(C(=O)N3CCCCC3c3cccnc3)[C@@H]3OC(C)(C)O[C@@H]3[C@H]2O1` (stereo partly shown), the “% Inhibition @ 10 uM” value was determined as 0.279%.

As to `CCN1CCN(C(=O)C2CC(=O)N(CCc3ccc(C)cc3)C2)CC1` (stereo not shown), the “% Inhibition @ 10 uM” value is recorded as -1.79%.

As to `N#Cc1c2c(c(S)sc1=N)CCCC2`, the “% Inhibition @ 10 uM” value stood at 59.6%.

Consider `COc1cccc(C2C(C#N)=C(N)Oc3c2c(O)nc2ccccc32)c1OC` (stereo not shown), for which the “% Inhibition @ 10 uM” value is given as 4.51%.

Consider `COc1ccc(OC)c(C2NC(=O)NC(C)=C2C(=O)Nc2ccccc2)c1` (stereo not shown), for which the “% Inhibition @ 10 uM” value is recorded as -4.49%.

Consider `Cc1ccc(NC(=O)C(CCS(C)(=O)=O)N2Cc3ccccc3C2=O)nc1` (stereo not shown), for which the “% Inhibition @ 10 uM” value is listed as -2.17%.

As for `Cc1ccc(-c2csc(/C(C#N)=C/c3ccc(Br)o3)n2)cc1`, the “% Inhibition @ 10 uM” value is given as 6.8%.

With `Nc1ncc(Br)cc1S(=O)(=O)NC1CCCCC1`, the “% Inhibition @ 10 uM” value is listed as -1.06%.

For the compound `Cc1ccc(OCC(=O)Nc2cccc(Cl)c2)c(Br)c1`, the “% Inhibition @ 10 uM” value is reported as 1.27%.

As for `Cc1occc1C(=O)N(Cc1ccccc1)Cc1ccccc1`, the “% Inhibition @ 10 uM” value is listed as -1.1%.

`COc1cc(OC)c(/C=C2/SC(=O)N(C(C)C)C2=O)cc1Br`: the “% Inhibition @ 10 uM” value is -1.28%.

Consider `Cc1ccc(NC(=O)c2c(-c3ccccc3)noc2C)cc1C`, for which the “% Inhibition @ 10 uM” value is -2.11%.

As to `CC(C(=O)NCc1ccco1)n1nc(-c2ccccc2)c2cc(Cl)ccc21` (stereo not shown), the “% Inhibition @ 10 uM” value amounted to 0.291%.

Turning to `Cc1ccc(C(=O)Nc2nc(-c3nnn(-c4ccccc4C(F)(F)F)c3C)ns2)cc1`, the “% Inhibition @ 10 uM” value is -2.83%.

Take `Cc1ccc(NC(=O)CN(c2cccc(Cl)c2)S(C)(=O)=O)cc1Cl`: the “% Inhibition @ 10 uM” value was -14.2%.

Take `CC(C)c1ccc(/C=C/C(=O)Nc2ccc(Cl)c(Cl)c2)cc1`: the “% Inhibition @ 10 uM” value stood at 13.1%.

Consider `COc1ccc(OC)c(C2C(C#N)=C(N)OC3=C2C(=O)CCC3)c1` (stereo not shown), for which the “% Inhibition @ 10 uM” value came to 3.31%.

Regarding `O=C1NC(=S)N/C1=C\C=C\c1cccs1`, the “% Inhibition @ 10 uM” value is recorded as 1%.

Turning to `CCOC(=O)c1ccccc1NC(=O)c1cccs1`, the “% Inhibition @ 10 uM” value was -2.28%.

Take `Cc1ccc(Cn2c(C)c3cnn(CC(=O)NCc4cccnc4)c(=O)c3c2C)cc1`: the “% Inhibition @ 10 uM” value is recorded as -3.96%.

`Cc1c(Br)c(NC(=O)C(F)(F)F)nn1Cc1ccc(Cl)cc1`: the “% Inhibition @ 10 uM” value is on record as -1.2%.

As to `Cc1cccc(NC(=O)Cc2c(F)cccc2Cl)n1`, the “% Inhibition @ 10 uM” value is 1.39%.

On to `CCOC(=O)c1c(C)nn(C2CCCCC2)c1N`, for which the “% Inhibition @ 10 uM” value is on record as 3.65%.

As to `COc1cccc(OC)c1-c1nnc(-c2ccccc2Cl)o1`, the “% Inhibition @ 10 uM” value was 2.41%.

With `CCc1cccc(C)c1NC(=O)COc1cccc(NC(C)=O)c1`, the “% Inhibition @ 10 uM” value is 1.13%.

`COCCNC(=O)c1c(NC(=O)Cc2coc3cc(C)cc(C)c23)sc2c1CCCC2`: the “% Inhibition @ 10 uM” value is -0.671%.

Regarding `Cc1cccc(NC2=C(Cl)C(=O)N(c3ccccc3)C2=O)c1C`, the “% Inhibition @ 10 uM” value is recorded as 1.03%.

Consider `COc1cc(/C=C2/C(=N)N3C(c4ccccc4)=CSC3=NC2=O)ccc1OC(C)C`, for which the “% Inhibition @ 10 uM” value is -0.178%.

For the compound `COc1ccc(-n2nc3c(c2NC(=O)c2ccccc2C)CS(=O)(=O)C3)cc1`, the “% Inhibition @ 10 uM” value stood at 3.8%.

Regarding `CCOC(=O)C1=C(N)Oc2ccc3ccccc3c2C1c1cccc(O)c1` (stereo not shown), the “% Inhibition @ 10 uM” value worked out at 24.8%.

As for `COc1ccc(CCn2c(SCc3ccccc3F)nc3nccnc3c2=O)cc1OC`, the “% Inhibition @ 10 uM” value is reported as -5.99%.

Consider `CC1CCCN(CCCNC(=O)c2ccc(CS(=O)(=O)Cc3cccc(Cl)c3)o2)C1` (stereo not shown), for which the “% Inhibition @ 10 uM” value came to 2.35%.

As to `CCOc1ccccc1NS(=O)(=O)c1ccc(Cl)cc1`, the “% Inhibition @ 10 uM” value was -4.63%.

On to `O=C(OC[C@@H]1CCCN2CCCC[C@H]12)c1ccccc1`, for which the “% Inhibition @ 10 uM” value was 1.29% and -3.82%.

As to `Cc1ccc(C)c(S(=O)(=O)Nc2cccc(C(F)(F)F)c2)c1`, the “% Inhibition @ 10 uM” value is 0.132%.

Turning to `Cc1ccc(-n2c(C)cc(/C=C3\SC(=O)NC3=O)c2C)cc1C`, the “% Inhibition @ 10 uM” value was determined as 3.65%.

In the case of `O=C(NCCCN1CCc2ccccc2C1)c1ccc2nc(N3CCCCC3)sc2c1`, the “% Inhibition @ 10 uM” value was determined as 1.03%.

For the compound `FC(F)(F)Oc1ccc(CNc2ccc3c[nH]nc3c2)cc1`, the “% Inhibition @ 10 uM” value is -3.57%.

Turning to `CCN1CCN(C(=O)Cn2ncc3c(C)n(Cc4ccccc4)c(C)c3c2=O)CC1`, the “% Inhibition @ 10 uM” value is -0.447%.

Take `Cc1cccc(-c2nc(C#N)c(N3CCOCC3)o2)c1`: the “% Inhibition @ 10 uM” value is -2.16%.

For the compound `Cc1ccc(CN2CCN(Cc3ccc4c(c3)OCO4)CC2)c(C)c1`, the “% Inhibition @ 10 uM” value was -3.72%.

As for `COc1ccc(C(=O)Nc2cc3ccccc3cc2NC(=O)c2ccc(OC)cc2)cc1`, the “% Inhibition @ 10 uM” value amounted to 4.42%.

With `CC(C)OCCCNc1ncnc2c1nc1n2CCCCC1`, the “% Inhibition @ 10 uM” value was found to be 2.99%.

In the case of `CCOC(=O)C1CCN(c2cccc(C)n2)CC1`, the “% Inhibition @ 10 uM” value is given as -1.2%.

Turning to `Cc1ccc(CNCCCSc2nnnn2-c2ccccc2)s1`, the “% Inhibition @ 10 uM” value was -4.71%.

Regarding `COC(=O)c1c(C)nc(C)c(C(=O)OC)c1-c1cccs1`, the “% Inhibition @ 10 uM” value was -4.42%.

As to `COc1ccccc1C(=O)n1nc(-c2cccnc2)nc1NCc1ccc(F)cc1`, the “% Inhibition @ 10 uM” value is -1.15%.

Take `COc1ccc(SCCc2ccccn2)cc1`: the “% Inhibition @ 10 uM” value is 1.13% and 0.51%.

In the case of `O=C(c1cc(C2CC2)[nH]n1)N1CCN(Cc2ccccc2)CC1`, the “% Inhibition @ 10 uM” value is listed as -1.04%.

As to `COc1ccc(C2=CC(c3cc(Br)ccc3F)n3nnnc3N2)cc1` (stereo not shown), the “% Inhibition @ 10 uM” value was determined as 3.32%.

Regarding `CN1C(C)(C)CC(NC(=O)c2ccncc2)CC1(C)C`, the “% Inhibition @ 10 uM” value is on record as -16.5%.

As to `Cc1cc(N2CCN(c3ccccn3)CC2)n2nc(C)c(-c3ccccc3)c2n1`, the “% Inhibition @ 10 uM” value was found to be 1.55%.

As for `CCN(CC)C(=O)C(=O)c1c(-c2ccccc2)n(C)c2ccccc12`, the “% Inhibition @ 10 uM” value is -7.8%.

For the compound `O=C(Nc1c(C(=O)N2CCN(c3ccc(F)cc3)CC2)cnn1-c1ccccc1Cl)c1ccco1`, the “% Inhibition @ 10 uM” value turned out to be 3.8%.

Take `Cc1cccc2c1-c1sc(C(=O)N(C)Cc3ccccc3)cc1CO2`: the “% Inhibition @ 10 uM” value is recorded as -8.58%.

For `O=S1(=O)CCC(Oc2ccc(Br)cc2)C1` (stereo not shown), the “% Inhibition @ 10 uM” value was -5.38%.

Regarding `COc1cc2c(cc1OC)C(c1ccc(Cl)cc1Cl)N(c1ccc(C)cc1)C(=O)C2` (stereo not shown), the “% Inhibition @ 10 uM” value is recorded as -7.19%.

In the case of `Cc1ccc(C2=NN(C(=O)CCC(=O)O)C(c3ccc4c(c3)OCO4)C2)cc1` (stereo not shown), the “% Inhibition @ 10 uM” value is on record as -4.43%.

These data come from publication PMC6919601, “Identification of Plasmodium dipeptidyl aminopeptidase allosteric inhibitors by high throughput screening” (PLoS ONE, 2019).
